IC50 is the fitted dose that halves viability relative to control wells, and lower means more sensitive; a fit beyond the top or the lowest dose is shown as a bound at that dose. The AUC spans the tested range (256-fold, ending at the top dose) of the same fit; the more sensitive the line, the further below 1. The top dose, if marked as inferred, was derived from the fitted curves, not read from the paper.

Compound in the experiment: C=CC(=O)Nc1cccc(Nc2nc(NC3CCC(N(C)C)CC3)nc3c2ncn3C(C)C)c1 [WZ3105]
The experiment can be described thus: Viability of human cancer cell lines after 72 h of drug (GDSC screen). The following applies: top dose inferred. The procedure:
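Human cancer cell lines in 384-well plates, medium with 10% serum, drug for 72 h over a 256-fold dose range (nine 2-fold or five 4-fold steps up to the top dose). Adherent lines were fixed and stained with the nucleic acid dye Syto60, suspension lines read with resazurin; signal relative to control wells, capped at 0 and 100%. One two-parameter sigmoid per drug and line, fitted in a mixed model over all curves with the slope shared within a line.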

As a reminder, the IC50 is the concentration that gives 50% inhibition. Regarding “RPMI-8226 (myeloma, suspension, top dose 1.28 µM)”, the AUC worked out at 0.528 and the IC50 was found to be 94.6 nM.

On to “RPMI-8402 (T-cell lymphoblastic leukaemia, suspension, top dose 10.24 µM)”, for which the AUC was determined as 0.15 and the IC50 is 69.2 nM.

For “RPMI-8866 (chronic myeloid leukaemia, suspension, top dose 1.28 µM)”, the AUC amounted to 0.71 and the IC50 turned out to be 297 nM.

For “RS4-11 (leukaemia, suspension, top dose 1.28 µM)”, the AUC came out at 0.505 and the half-maximal inhibitory concentration (IC50) came out at 82.4 nM.

For the cell line “RT4 (bladder, adherent, top dose 1.28 µM)”, the AUC came to 0.71 and the half-maximal inhibitory concentration (IC50) is 325 nM.

As to “RT-112 (bladder, adherent, top dose 1.28 µM)”, the AUC came out at 0.77 and the IC50 was determined as 524 nM.

As for “RVH-421 (melanoma, adherent, top dose 1.28 µM)”, the AUC stood at 0.782 and the 50% inhibitory concentration (IC50) turned out to be 757 nM.

For “RXF393 (kidney, adherent, top dose 1.28 µM)”, the AUC is 0.66 and the 50% inhibitory concentration (IC50) came out at 265 nM.

Regarding “Raji (Burkitt lymphoma, suspension, top dose 1.28 µM)”, the AUC was found to be 0.707 and the half-inhibitory concentration (IC50) stood at 293 nM.

“Ramos-2G6-4C10 (Burkitt lymphoma, suspension, top dose 1.28 µM)”: the AUC is 0.55 and the IC50 is 107 nM.

“SAS (head and neck, adherent, top dose 1.28 µM)”: the AUC amounted to 0.79 and the IC50 is 640 nM.

For the cell line “SAT (head and neck, adherent, top dose 1.28 µM)”, the AUC was found to be 0.889 and the IC50 is over 1280 nM.

In the case of “SBC-1 (small cell lung carcinoma, suspension, top dose 1.28 µM)”, the AUC was 0.567 and the half-maximal inhibitory concentration (IC50) stood at 121 nM.

Take “SBC-3 (small cell lung carcinoma, adherent, top dose 1.28 µM)”: the AUC is 0.608 and the IC50 was 154 nM.

In the case of “SBC-5 (small cell lung carcinoma, adherent, top dose 1.28 µM)”, the AUC stood at 0.965 and the IC50 is over 1280 nM.

For the cell line “SCC-3 (B-cell lymphoma, suspension, top dose 1.28 µM)”, the AUC was 0.669 and the IC50 amounted to 205 nM.

Turning to “SCC-4 (head and neck, adherent, top dose 1.28 µM)”, the AUC worked out at 0.906 and the IC50 is over 1280 nM.

In the case of “SCC-9 (head and neck, adherent, top dose 1.28 µM)”, the AUC is 0.812 and the concentration for half-maximal inhibition (IC50) stood at 931 nM.

As for “SCC-15 (head and neck, adherent, top dose 1.28 µM)”, the AUC came out at 0.918 and the concentration for half-maximal inhibition (IC50) is over 1280 nM.

Turning to “SCC-25 (head and neck, adherent, top dose 1.28 µM)”, the AUC stood at 0.841 and the IC50 was 1070 nM.

As to “SCH (stomach, adherent, top dose 1.28 µM)”, the AUC is 0.988 and the IC50 is over 1280 nM.

Consider “SF126 (glioma, adherent, top dose 1.28 µM)”, for which the AUC amounted to 0.984 and the IC50 was over 1280 nM.

Consider “SF268 (glioma, adherent, top dose 1.28 µM)”, for which the AUC stood at 0.679 and the IC50 worked out at 265 nM.

Take “SF295 (glioma, adherent, top dose 1.28 µM)”: the AUC is 0.974 and the IC50 was over 1280 nM.

With “SF539 (glioma, adherent, top dose 1.28 µM)”, the AUC turned out to be 0.738 and the concentration for half-maximal inhibition (IC50) is 350 nM.

Take “SH-4 (melanoma, adherent, top dose 1.28 µM)”: the AUC is 0.898 and the half-inhibitory concentration (IC50) was over 1280 nM.

Take “SHP-77 (small cell lung carcinoma, semi-adherent, top dose 1.28 µM)”: the AUC worked out at 0.989 and the IC50 is over 1280 nM.

With “SIG-M5 (acute myeloid leukaemia, suspension, top dose 1.28 µM)”, the AUC is 0.49 and the concentration for half-maximal inhibition (IC50) is 75.5 nM.

For the cell line “SIMA (neuroblastoma, adherent, top dose 1.28 µM)”, the AUC turned out to be 0.981 and the concentration for half-maximal inhibition (IC50) was over 1280 nM.

For the cell line “SISO (cervix, adherent, top dose 1.28 µM)”, the AUC turned out to be 0.924 and the half-inhibitory concentration (IC50) was over 1280 nM.

Take “SJRH30 (rhabdomyosarcoma, adherent, top dose 1.28 µM)”: the AUC was 0.599 and the IC50 is 150 nM.

As for “SJSA-1 (bone, adherent, top dose 1.28 µM)”, the AUC came to 0.814 and the IC50 was found to be 809 nM.

As to “SK-CO-1 (large intestine, adherent, top dose 1.28 µM)”, the AUC amounted to 0.74 and the IC50 is 370 nM.

Turning to “SK-ES-1 (Ewing sarcoma, semi-adherent, top dose 1.28 µM)”, the AUC came out at 0.509 and the IC50 amounted to 84.7 nM.

For “SK-GT-4 (oesophagus, adherent, top dose 1.28 µM)”, the AUC came to 0.738 and the IC50 is 458 nM.

For “SK-HEP-1 (liver, adherent, top dose 1.28 µM)”, the AUC came to 0.936 and the IC50 was over 1280 nM.

In the case of “SK-LMS-1 (soft tissue, adherent, top dose 1.28 µM)”, the AUC is 0.913 and the 50% inhibitory concentration (IC50) is over 1280 nM.

“SK-LU-1 (lung adenocarcinoma, adherent, top dose 1.28 µM)”: the AUC was 0.85 and the concentration for half-maximal inhibition (IC50) was over 1280 nM.

As for “SK-MEL-1 (melanoma, suspension, top dose 1.28 µM)”, the AUC turned out to be 0.95 and the IC50 is over 1280 nM.

With “SK-MEL-2 (melanoma, adherent, top dose 1.28 µM)”, the AUC came to 0.765 and the concentration for half-maximal inhibition (IC50) amounted to 487 nM.

In the case of “SK-MEL-3 (melanoma, adherent, top dose 1.28 µM)”, the AUC is 0.696 and the concentration for half-maximal inhibition (IC50) was found to be 314 nM.

As to “SK-MEL-5 (melanoma, adherent, top dose 1.28 µM)”, the AUC turned out to be 0.889 and the IC50 was over 1280 nM.

Consider “SK-MEL-24 (melanoma, adherent, top dose 1.28 µM)”, for which the AUC turned out to be 0.983 and the IC50 is over 1280 nM.

On to “SK-MEL-28 (melanoma, adherent, top dose 1.28 µM)”, for which the AUC was found to be 0.844 and the IC50 was 889 nM.

With “SK-MEL-30 (melanoma, adherent, top dose 1.28 µM)”, the AUC came out at 0.77 and the IC50 was found to be 513 nM.

Take “SK-MES-1 (lung squamous cell carcinoma, adherent, top dose 1.28 µM)”: the AUC was 0.846 and the IC50 was 1060 nM.

“SK-MG-1 (glioma, adherent, top dose 1.28 µM)”: the AUC amounted to 0.982 and the 50% inhibitory concentration (IC50) was over 1280 nM.

As for “SK-MM-2 (myeloma, suspension, top dose 1.28 µM)”, the AUC turned out to be 0.959 and the 50% inhibitory concentration (IC50) is over 1280 nM.

On to “SK-N-AS (neuroblastoma, adherent, top dose 1.28 µM)”, for which the AUC was found to be 0.851 and the 50% inhibitory concentration (IC50) was 1220 nM.

As for “SK-N-DZ (neuroblastoma, adherent, top dose 1.28 µM)”, the AUC worked out at 0.988 and the IC50 is over 1280 nM.

For “SK-N-FI (neuroblastoma, adherent, top dose 1.28 µM)”, the AUC turned out to be 0.988 and the half-inhibitory concentration (IC50) is over 1280 nM.

“SK-N-SH (neuroblastoma, adherent, top dose 1.28 µM)”: the AUC was 0.987 and the half-inhibitory concentration (IC50) is over 1280 nM.

In the case of “SK-OV-3 (ovary, adherent, top dose 1.28 µM)”, the AUC came to 0.74 and the IC50 was determined as 473 nM.

Regarding “SK-PN-DW (Ewing sarcoma, adherent, top dose 1.28 µM)”, the AUC worked out at 0.705 and the half-maximal inhibitory concentration (IC50) turned out to be 310 nM.

“SK-UT-1 (soft tissue, adherent, top dose 1.28 µM)”: the AUC was determined as 0.906 and the IC50 was over 1280 nM.

Turning to “SKG-IIIa (cervix, adherent, top dose 1.28 µM)”, the AUC was determined as 0.978 and the half-maximal inhibitory concentration (IC50) is over 1280 nM.

Take “SKN (uterus, adherent, top dose 1.28 µM)”: the AUC came to 0.829 and the half-maximal inhibitory concentration (IC50) came to 1040 nM.

With “SKN-3 (head and neck, adherent, top dose 1.28 µM)”, the AUC was 0.845 and the IC50 stood at 1190 nM.

Take “SLVL (B-cell lymphoma, suspension, top dose 1.28 µM)”: the AUC was 0.461 and the 50% inhibitory concentration (IC50) was 62.2 nM.

As to “SN12C (kidney, adherent, top dose 1.28 µM)”, the AUC came out at 0.96 and the IC50 is over 1280 nM.

Turning to “SNB75 (glioma, adherent, top dose 1.28 µM)”, the AUC was 0.762 and the IC50 came to 675 nM.

Regarding “SNG-M (endometrium, adherent, top dose 1.28 µM)”, the AUC was found to be 0.795 and the IC50 is 580 nM.

On to “SNU-61 (large intestine, adherent, top dose 1.28 µM)”, for which the AUC amounted to 0.782 and the IC50 stood at 721 nM.

For the cell line “SNU-81 (large intestine, adherent, top dose 1.28 µM)”, the AUC is 0.737 and the IC50 was 488 nM.

Turning to “SNU-175 (large intestine, suspension, top dose 1.28 µM)”, the AUC worked out at 0.63 and the IC50 came to 179 nM.

Take “SNU-182 (liver, adherent, top dose 1.28 µM)”: the AUC was 0.795 and the IC50 was 624 nM.

For the origin of these results see the supplement of paper PMC4967469.
